In publication PMC11995724, “Antibiotic target discovery by integrated phenotypic and activity-based profiling of electrophilic fragments” (Cell chemical biology, 2025):
Hit rate of the full screen: of about 3,200 compounds, about 75 (2%) showed an effect of 50% or more. The list shows a part of the results.

Test system: T1, S. aureus MSSA476
T1 construct: MSSA476
Design: species or system S. aureus MSSA476 (TSB) or V. cholerae SAD30 (LB); 384-well bacterial growth screen at 25 uM, OD600 relative to DMSO control
Conditions: relative growth, OD600, TSB; 25 µM; inhibitor

Structure (SMILES)	% of control remaining
COc1ccc(S(=O)(=O)N2CCSSCC2)cc1C [10-D11, 5-(4-methoxy-3-methylbenzenesulfonyl)-1,2,5-dithiazepane]	107.188%
C=CC(=O)N1CCC(C(=O)N2CCCC(C)(CC)C2)CC1 (stereo not shown) [2-J10, 1-[4-(3-ethyl-3-methylpiperidine-1-carbonyl)piperidin-1-yl]prop-2-en-1-one]	96.7798%
C=CC(=O)Nc1ccccc1CNS(C)(=O)=O [3-F16, N-[2-(methanesulfonamidomethyl)phenyl]prop-2-enamide]	94.7323%
C=CC(=O)NCc1ccc(C(=O)N2CCOC3(CCCC3)C2)cc1 [3-B05, N-[(4-{6-oxa-9-azaspiro[4.5]decane-9-carbonyl}phenyl)methyl]prop-2-enamide]	94.384%
C=CC(=O)NCCc1nc(C)cs1 [2-D05, N-[2-(4-methyl-1,3-thiazol-2-yl)ethyl]prop-2-enamide]	103.742%
C=CC(=O)N1CCCC1 [1-G08, 1-(pyrrolidin-1-yl)prop-2-en-1-one]	116.044%
N#CC(=Cc1cc(F)ccc1F)C(=O)NC1CCCCC1 [8-G08, 2-cyano-N-cyclohexyl-3-(2,5-difluorophenyl)prop-2-enamide]	64.3983%
CN(C)C1=NC(N)=NC(=C(C#N)C(=O)CCl)N1 [10-P20, 2-[4-amino-6-(dimethylamino)-1,2-dihydro-1,3,5-triazin-2-ylidene]-4-chloro-3-oxobutanenitrile]	96.25%
C=CC(=O)NC12CC3CC(CC(C3)C1)C2 [1-E12, N-(adamantan-1-yl)prop-2-enamide]	103.385%
C=CC(=O)Nc1ncnc2c1cnn2Cc1cccc(C)c1 [1-M21, N-{1-[(3-methylphenyl)methyl]-1H-pyrazolo[3,4-d]pyrimidin-4-yl}prop-2-enamide]	98.1099%
CCN1C(=O)CC[C@H](CNC(=O)C(C)Cl)[C@H]1c1cnn(C)c1 (mixture of isomers) [6-L13, rac-2-chloro-N-{[(2R,3S)-1-ethyl-2-(1-methyl-1H-pyrazol-4-yl)-6-oxopiperidin-3-yl]methyl}propanamide]	89.122%
C=CC(=O)Nc1ccc(-n2cnnn2)c(F)c1 [1-I17, N-[3-fluoro-4-(1H-1,2,3,4-tetrazol-1-yl)phenyl]prop-2-enamide]	115.692%
CCc1ccc(OC(C)C(=O)N2CCN(C(=O)C(C)Cl)CC2)cc1 (stereo not shown) [6-H16, 1-[4-(2-chloropropanoyl)piperazin-1-yl]-2-(4-ethylphenoxy)propan-1-one]	75.122%
Cc1cc(C(=O)CCl)c(C)n1CCc1ccc(Cl)cc1 [10-N16, 2-chloro-1-{1-[2-(4-chlorophenyl)ethyl]-2,5-dimethyl-1H-pyrrol-3-yl}ethan-1-one]	5.9375%
C=CC(=O)NCc1cnc(CC(C)C)s1 [1-J10, N-{[2-(2-methylpropyl)-1,3-thiazol-5-yl]methyl}prop-2-enamide]	117.099%
C=CC(=O)N1CCCN(S(=O)(=O)c2ccc(OC)cc2)CC1 [3-G10, 1-[4-(4-methoxybenzenesulfonyl)-1,4-diazepan-1-yl]prop-2-en-1-one]	104.484%
C=CC(=O)NC1(Cc2nnc3ccccn23)CCCCC1 [2-L03, N-[1-({[1,2,4]triazolo[4,3-a]pyridin-3-yl}methyl)cyclohexyl]prop-2-enamide]	88.7728%
CCOC(=O)c1ccccc1NC(=O)CCl [4-B17, ethyl 2-(2-chloroacetamido)benzoate]	113.959%
Cc1ccc(C=C(C#N)C(=O)Nc2cccc3ccccc23)cc1 [8-M14, 2-cyano-3-(4-methylphenyl)-N-(naphthalen-1-yl)prop-2-enamide]	74.0249%
C=CCNC(=O)C(C#N)=Cc1ccc(C)s1 [9-F05, 2-cyano-3-(5-methylthiophen-2-yl)-N-(prop-2-en-1-yl)prop-2-enamide]	101.273%
C=CCNC(=O)C(C#N)=Cc1ccc(C)c(C)c1 [9-D21, 2-cyano-3-(3,4-dimethylphenyl)-N-(prop-2-en-1-yl)prop-2-enamide]	99.176%
C=CC(=O)Nc1conc1-c1ccccc1 [1-I09, N-(3-phenyl-1,2-oxazol-4-yl)prop-2-enamide]	111.473%
COc1ccc(-c2csc(NC(=O)CCl)n2)cc1 [4-N06, 2-chloro-N-[4-(4-methoxyphenyl)-1,3-thiazol-2-yl]acetamide]	111.291%

Structure (SMILES)	% of control remaining
CC(C)NC(=O)C(C#N)=Cc1cnn(-c2ccc(Cl)cc2)c1 [8-I08, 3-[1-(4-chlorophenyl)-1H-pyrazol-4-yl]-2-cyano-N-(propan-2-yl)prop-2-enamide]	96.5975%
CC(NC(=O)C(C#N)=Cc1ccco1)c1cccc(-n2ccnc2)c1 (stereo not shown) [9-H04, 2-cyano-3-(furan-2-yl)-N-{1-[3-(1H-imidazol-1-yl)phenyl]ethyl}prop-2-enamide]	97.3783%
C=CC(=O)N1CCC(n2ccnn2)CC1 [3-K09, 1-[4-(1H-1,2,3-triazol-1-yl)piperidin-1-yl]prop-2-en-1-one]	109.012%
O=C(CCl)Nc1cccc(S(=O)(=O)N2CCOCC2)c1 [4-P08, 2-chloro-N-[3-(morpholine-4-sulfonyl)phenyl]acetamide]	119.295%
Cc1c(C=C(C#N)C(=O)Nc2ccccc2F)cc(C#N)n1C [8-A13, 2-cyano-3-(5-cyano-1,2-dimethyl-1H-pyrrol-3-yl)-N-(2-fluorophenyl)prop-2-enamide]	117.178%
CC1CCN(C(=O)CCl)c2cc(Cl)ccc2S1 (stereo not shown) [4-G16, 2-chloro-1-(7-chloro-2-methyl-2,3,4,5-tetrahydro-1,5-benzothiazepin-5-yl)ethan-1-one]	93.3778%
C=CC(=O)NCc1ccccc1-n1nc(C)cc1C [3-P19, N-{[2-(3,5-dimethyl-1H-pyrazol-1-yl)phenyl]methyl}prop-2-enamide]	112.843%
N#CC(=Cc1ccc(Cl)cc1Cl)C(N)=O [8-H17, 2-cyano-3-(2,4-dichlorophenyl)prop-2-enamide]	123.485%
N#CC(C(=O)Nc1ccc(Cl)cc1)=C(S)Nc1ccccc1 [8-H22, N-(4-chlorophenyl)-2-cyano-3-(phenylamino)-3-sulfanylprop-2-enamide]	74.3568%
C=CC(=O)N1CCCc2cccc(F)c21 [1-L19, 1-(8-fluoro-1,2,3,4-tetrahydroquinolin-1-yl)prop-2-en-1-one]	125.538%
CC(Cl)C(=O)N1CCC(n2ncc3ccccc32)C1 (stereo not shown) [7-K04, 2-chloro-1-[3-(1H-indazol-1-yl)pyrrolidin-1-yl]propan-1-one]	74.4113%
Cl.O=C(CCl)c1ccncc1 [10-M09, 2-chloro-1-(pyridin-4-yl)ethan-1-one hydrochloride]	111.875%
C=CC(=O)NCCn1nnnc1C [2-A03, N-[2-(5-methyl-1H-1,2,3,4-tetrazol-1-yl)ethyl]prop-2-enamide]	125.326%
CC(C)Cc1ccc(C(C)NC(=O)CCl)cc1 (stereo not shown) [4-H03, 2-chloro-N-{1-[4-(2-methylpropyl)phenyl]ethyl}acetamide]	75.8456%
CCC(=O)NC1CCN(C(=O)CCl)C1 (stereo not shown) [5-G04, N-[1-(2-chloroacetyl)pyrrolidin-3-yl]propanamide]	75.4098%
COc1ccccc1C=CC=C(C#N)C(=O)Nc1ccccn1 [9-L17, 2-cyano-5-(2-methoxyphenyl)-N-(pyridin-2-yl)penta-2,4-dienamide]	86.8914%
O=C(CCl)NCc1ccccc1CS(=O)(=O)N1CCOCC1 [4-G08, 2-chloro-N-({2-[(morpholine-4-sulfonyl)methyl]phenyl}methyl)acetamide]	110.91%
C=CC(=O)Nc1cc(NC(=O)C2(OC)CCOC2)ccc1F (stereo not shown) [3-D05, N-[4-fluoro-3-(prop-2-enamido)phenyl]-3-methoxyoxolane-3-carboxamide]	96.8219%
O=C(CCl)NCCc1nc2c(s1)CCCCC2 [4-J21, 2-chloro-N-(2-{4H,5H,6H,7H,8H-cyclohepta[d][1,3]thiazol-2-yl}ethyl)acetamide]	93.3778%
Cc1cc(C(=O)CCl)c(C)n1-c1cc(Cl)cc(Cl)c1 [10-I04, 2-chloro-1-[1-(3,5-dichlorophenyl)-2,5-dimethyl-1H-pyrrol-3-yl]ethan-1-one]	0%
C=CC(=O)N1CCC(c2nnnn2C)CC1 [2-I06, 1-[4-(1-methyl-1H-1,2,3,4-tetrazol-5-yl)piperidin-1-yl]prop-2-en-1-one]	104.439%
CC(C)NC(=O)C(C#N)=Cc1cc(F)ccc1F [8-C08, 2-cyano-3-(2,5-difluorophenyl)-N-(propan-2-yl)prop-2-enamide]	136.1%
Cc1ccc(-c2csc(NC(=O)CCl)n2)cc1C [5-F16, 2-chloro-N-[4-(3,4-dimethylphenyl)-1,3-thiazol-2-yl]acetamide]	97.9964%
